# According to PubChem BioAssay AID588855 (National Center for Advancing Translational Sciences (NCATS), 2011):
# Screen size: about 410,000 compounds; about 5,000 (1.2%) were called active. The shares of active, inactive and inconclusive entries below differ from those in the screen. Calls follow the shape of the dose curve; as a rule, active = well fitted inhibition curve with a large enough effect; inconclusive = small, poorly fitted or top-dose-only effect; inactive = no such curve, though single readings can be large or run the other way. Potencies beside an inconclusive call are fits to weak or partial responses and may not hold up.
# Experiment: qHTS for Inhibitors of TGF-b; also: nearly all actives have a fitted effect of over 65% in size
# Conditions: HepG2 CAGA-GFP TGF-b/SMAD3 reporter, GFP fluorescence, 18 h, TGF-beta stimulated, 500 pg/mL final; series mostly up to 46.1 µM
# Method in brief: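 HEPG2 CAGA-GFP reporter cells (1000/well, DMEM with 1% FBS) received compounds, then recombinant TGF-beta at 500 pg/mL final for 18 hours at 37 degrees C. Per-cell GFP summed per well was normalised to unstimulated and stimulated DMSO controls before curve fitting.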
# Potency is read from the fitted curve at half-maximal effect; tags tell the direction and shape of the fitted curve.
row,Structure (SMILES),Potency
1,Cc1ccc(C(=O)n2nc(-c3cccnc3)nc2N)cc1,inactive
2,COC(=O)C1=C(\O)CCCC/C=C\1C(=O)O,inactive
3,CC(C)C[C@H](NC(=O)C1CCN(C(=O)[C@H](Cc2ccccc2)NC(=O)OC(C)(C)C)CC1)C(=O)O,inactive
4,COC(=O)Nc1nc2ccc(Sc3ccccc3)cc2[nH]1,"inconclusive: 35.5 µM [inhibitor, single point]"
5,Cc1cccc(N(Cc2ccccc2)C(=O)C2CCN(C(=O)c3ccccc3C)CC2)c1,"inconclusive: 12.6 µM [inhibitor, single point]"
6,CCc1c(C)nc2ncnn2c1N1CCC(C(=O)NCc2ccc3c(c2)OCO3)CC1,"inconclusive: 7.08 µM [inhibitor, partial curve, poor fit]"
7,Oc1ccccc1N=Nc1ccccc1O,"inconclusive: 3.98 µM [inhibitor, full curve, poor fit]"
8,O=C(Nn1cnnc1)c1ccc(Cl)cc1[N+](=O)[O-],inactive
9,O=[N+]([O-])c1cc(NS(=O)(=O)c2ccc(Cl)nc2)ccc1Cl,"inconclusive: 35.5 µM [inhibitor, single point]"
10,COc1ccc(-c2[nH]c3ccccc3c2SCCNC(=O)c2ccc(S(=O)(=O)N(C)C)cc2)cc1,inactive
11,COc1ccc(S(=O)(=O)NCC(c2ccc(N(C)C)cc2)N2CCOCC2)cc1 (configuration not stated),inactive
12,COc1ccc2c(=O)cc(-c3ccncc3)oc2c1OC,"inconclusive: 35.5 µM [inhibitor, single point]"
13,COc1ccc(-c2csc(N3C(=O)CNC3=S)n2)cc1,"inconclusive: 6.31 µM [inhibitor, single point]"
14,CC(=O)NC12CC3CC(C1)CC(C(=O)N(C)Cc1cccc(Cl)c1Cl)(C3)C2,"inconclusive: 14.1 µM [inhibitor, single point]"
15,O=S(=O)(c1ccc2ccccc2c1)n1nc(-c2ccco2)nc1NCc1cccc(Cl)c1,inactive
16,CC(C)CCNC(=S)Nc1ccccn1,"inconclusive: 35.5 µM [inhibitor, single point]"
17,COc1ccc(S(=O)(=O)c2cn(C)c3cc(N4CCCC4)c(F)cc3c2=O)cc1,"inconclusive: 0.708 µM [inhibitor, full curve, poor fit]"
18,CC(=O)Nc1ccc(-c2ccnc3c2CC(C)(C(=O)Nc2cccc(C(F)(F)F)c2)O3)cc1 (configuration not stated),"inconclusive: 35.5 µM [inhibitor, single point]"
19,Cc1c2n(c3ccccc13)CCN(C)C2,inactive
20,CS(=O)(=O)Nc1cccc(C(=O)CC2(O)C(=O)Nc3ccccc32)c1 (configuration not stated),inactive
21,NC(=S)NN=C1c2ccccc2-c2c(F)c(F)c(F)c(F)c21,"inconclusive: 25.1 µM [inhibitor, single point]"
22,CCOc1ccc(/C=N/O)cc1,inactive
23,CCCC12CN3CC(CCC)(CN(C1)C3c1c[nH]c3ccccc13)C2=O (configuration not stated),"inconclusive: 22.4 µM [inhibitor, partial curve, poor fit]"
24,Oc1c(I)cc(Cl)c2cccnc12,active: 15.8 µM

row,Structure (SMILES),Potency
1,COc1ccc(-c2nc(-c3ccccc3)c(-c3ccccc3)[nH]2)cc1Br,"inconclusive: 0.794 µM [inhibitor, full curve, poor fit]"
2,O=C(c1ccc(-c2ccccc2)c(F)c1)C1CCCN(CCCn2cccn2)C1 (configuration not stated),"inconclusive: 35.5 µM [inhibitor, single point]"
3,COc1ccccc1OCCCC(=O)NC(C)c1ccccc1 (configuration not stated),"inconclusive: 35.5 µM [inhibitor, single point]"
4,C=C(C)COc1ccc(-c2[nH]ncc2-c2ccc(Br)cc2)c(O)c1,active: 20 µM
5,Cc1ccc(OC2CCN(C(=O)C3CCC(=O)N(C4CC4)C3)CC2)cc1 (configuration not stated),inactive
6,CCN(C(=O)C1CCN(S(=O)(=O)c2ccc3c(c2)CCCN3C(=O)C2CCC2)CC1)c1cccc(C)c1,inactive
7,CSc1nccc(-c2nn(-c3ccc(C)cc3)ccc2=O)n1,inactive
8,CCC(=O)N1CCc2cc(S(=O)(=O)NCCC(=O)Nc3ccc(OC)c(Cl)c3)ccc21,inactive
9,CCc1nnc2c(NCc3ccccc3OC)nc3ccccc3n12,inactive
10,O=C(CSc1cn(CC(=O)N2CCCCCC2)c2ccccc12)Nc1ccccc1F,inactive
11,CC(C)c1nnc(N2C(=O)c3oc4ccccc4c(=O)c3C2c2cccc(O)c2)s1 (configuration not stated),"inconclusive: 14.1 µM [inhibitor, single point]"
12,O=C(NCC1CCCO1)C(c1cccs1)N(Cc1ccccc1Cl)C(=O)c1ccc(-c2ccccc2)[nH]1 (configuration not stated),"inconclusive: 35.5 µM [inhibitor, single point]"
13,CC(C)(C)C1CCC(C(=O)Nc2ccccc2N2CCOCC2)CC1 (configuration not stated),inactive
14,COC(=O)C1CCN(CC(=O)Nc2ccc(OC)c(Cl)c2)CC1,inactive
15,COC(=O)c1sc2cccc(F)c2c1S(=O)(=O)Nc1cc(OC)cc(OC)c1,"inconclusive: 2.82 µM [inhibitor, full curve, poor fit]"
16,O=C(CSc1nc2ccccc2c(=O)n1CCC(=O)NC1CCCCC1)Nc1ccccc1Cl,inactive
17,Cc1nn(CCCC(=O)NCc2ccccc2)c(=O)c2nn(-c3ccccc3)c(C)c12,"inconclusive: 4.47 µM [inhibitor, partial curve, poor fit]"
18,CC(NC(=O)OC(C)(C)C)C(=O)NC(CCC(=O)OCc1ccccc1)C(N)=O (configuration not stated),inactive
19,CCc1nc(C)cn1S(=O)(=O)c1cc(Cl)c(OC)cc1Cl,"inconclusive: 0.112 µM [inhibitor, full curve, poor fit]"
20,O=C(CSC(=S)N1CCOCC1)c1cc2ccccc2oc1=O,"inconclusive: 11.2 µM [inhibitor, single point]"
21,Cc1ccccc1OCC(=O)NC(=S)Nc1cccc2cc(O)ccc12,"inconclusive: 25.1 µM [inhibitor, single point]"
22,CC1(C(=O)Nc2cccc3c2CCCC3)CCN1C(=O)CCC1CCCC1 (configuration not stated),"inconclusive: 20 µM [inhibitor, partial curve, poor fit]"
23,CC(=O)Oc1ccc(C2=NN(c3ccccc3)C(c3ccccc3)C2)cc1 (configuration not stated),"inconclusive: 12.6 µM [inhibitor, single point]"
24,COC(=O)c1scc(-c2ccc(C)cc2)c1S(=O)(=O)Nc1cccc(C(F)(F)F)c1,"inconclusive: 22.4 µM [inhibitor, partial curve, poor fit]"

row,Structure (SMILES),Potency
1,Cc1ccc(C2(c3ccccc3)NC(=O)N(CC(=O)N3CC(=O)Nc4ccccc43)C2=O)cc1C (configuration not stated),"inconclusive: 11.2 µM [inhibitor, partial curve, poor fit]"
2,COc1cc(NC(=O)CSc2nncn2C)c(C)cc1[N+](=O)[O-],inactive
3,CCOC(=O)C1(CCc2ccccc2)CCN(Cc2nccn2CC)CC1,"inconclusive: 25.1 µM [inhibitor, single point]"
4,CCOc1ccc(-c2cc(NC(=O)Cn3ncc4c3-c3ccccc3OC4)on2)cc1OCC,"inconclusive: 35.5 µM [inhibitor, single point]"
5,Cc1ccc2c(c1)N(CC(=O)NC1CCCCC1C)C(=O)CO2 (configuration not stated),"inconclusive: 14.1 µM [inhibitor, single point]"
6,O=C(CN1C(=O)NC2(CCCCCC2)C1=O)NCc1ccc(Cl)cc1,"inconclusive: 2.24 µM [inhibitor, partial curve, poor fit]"
7,COc1ccc(NC(=O)c2cc3ccccc3o2)cc1OC,inactive
8,COc1ccc(N=C2C(=Nc3ccc(OC)cc3)N(c3ccc(OC)cc3)C(=S)N2C)cc1,inactive
9,CCCCCOc1ccc(C(=O)N(Cc2ccco2)C2CCS(=O)(=O)C2)cc1 (configuration not stated),inactive
10,CCCCOc1ccc(NC(=O)C2CC=CCC2C(=O)O)cc1 (configuration not stated),"inconclusive: 5.62 µM [inhibitor, single point]"
11,Cc1ccc2c(CC(=O)Nc3ccccc3C(F)(F)F)coc2c1C,"inconclusive: 3.98 µM [inhibitor, partial curve]"
12,CC(CNC(=O)C1CCN(Cc2cc3ccccc3n2Cc2ccccc2)CC1)c1ccccc1 (configuration not stated),inactive
13,Cc1cccc(OCCCN2C(=O)C(=O)c3cc(C)ccc32)c1,"inconclusive: 35.5 µM [inhibitor, single point]"
14,COc1cc(NC(=O)CCS(=O)(=O)c2nc(-c3cccs3)cc(C(F)(F)F)n2)cc(OC)c1OC,active: 12.6 µM
15,O=Cc1ccc2oc3nc4n(c(=O)c3c(=O)c2c1)CCCS4,inactive
16,CC1CC(C)CN(CCCNC(=O)COc2cc(=O)n(C)c3ccccc23)C1 (configuration not stated),"inconclusive: 0.562 µM [inhibitor, full curve]"
17,C[C@H]1CCC[C@]2(O[C@@H](CCO)C[C@H](O)[C@H]2O)O1,"inconclusive: 6.31 µM [inhibitor, single point]"
18,COc1ccc(C(=O)c2cn(Cc3ccc(C)cc3)c3cc4c(cc3c2=O)OCO4)cc1,"inconclusive: 17.8 µM [inhibitor, single point]"
19,COc1cc(OC)c(OC)cc1CN1CCN(c2ccccc2OC)CC1,"inconclusive: 28.2 µM [inhibitor, single point]"
20,COC(=O)[C@@]12CCCCN1[C@H](c1ccc(-c3cccc(Cl)c3)c(OC)c1)[C@@H]1C(=O)N(C)C(=O)[C@@H]12,"inconclusive: 25.1 µM [inhibitor, single point]"
21,COc1cc(C2CC(=O)Oc3cc(C)c(Cl)c(C)c32)cc(OC)c1OC (configuration not stated),inactive
22,Nc1ccc(Nc2ccccc2)cc1,active: 14.1 µM
23,Cc1ccc2nc(-c3ccc(NC(=O)COc4c(C)ccc(C)c4C)cc3)sc2c1,"inconclusive: 2.51 µM [inhibitor, partial curve]"
24,COc1ccc(CC(=O)Nc2nnc(CC(C)C)s2)cc1S(=O)(=O)N1CCOCC1,"inconclusive: 5.62 µM [inhibitor, single point]"
